The text below walks through data of the supplement of paper PMC8728848.

Assay [1] concerns the target Neu5Gc(a2-8)Neu5Gc(a2-6)Gal(b1-4)GlcNAc. The assay can be described thus: glycan array binding signal (z-score within array); higher = stronger binding. Conditions: glycan notation: IUPAC condensed, linker removed. In outline:
(§1)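 Glycan array data were curated from 3228 arrays in the Consortium for Functional Glycomics database and kept only where the protein sequence was available. Glycan names were converted to IUPAC-condensed notation, and columns mapping to the same glycan were averaged. The binding signal is a within-array Z-score, averaged across arrays of the same protein sequence at different concentrations or buffers and across linkers. Negative Z-scores can be read as non-binding.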

Assay [2] has as its target Neu5Gc(b2-6)Gal(b1-4)GlcNAc. Described as above. Conditions: glycan notation: IUPAC condensed, linker removed. In outline: as §1

This is one part of the list.

B1: Di AAL2 (Agrocybe aegerita) (protein)
chain: MTSNVITQDLPIPVASRGFADIVGFGLDGVVIGRNAVNLQPFLAVKNFAQNAGGWLTTKHVRLIADTTGTGKGDIVGFGNAGVYVSVNNGKNTFADPPKMVIANFGYDAGGWRVEKHLRYLADIRKIGRADIIGFGEKGVLVSRNNGGLNFGPATLVLKDFGYDAGGWRLDRHLRFLADVTGNGHLDIVGFGDKHVFISRNNGDGTFAPAKSVIDNFCIDAGGWKIGDHPRFVADLTGDGTADIIGCGKAGCWVALNNGGGVFGQVKLVINDFGTDKGWQAAKHPRFIADLTGNGRGDVVGFGNAGVYVALNNGDGTFQSAKLVLKDFGVQQGWTVSKHRRFVVDLTGDGCADIIGFGEKETLVSYNDGKGNFGPVKALTNDFSFSGGKWAPETTVCWMANLDSSRHPAPAPMTSNVITQDLPIPVASRGFADIVGFGLDGVVIGRNAVNLQPFLAVKNFAQNAGGWLTTKHVRLIADTTGTGKGDIVGFGNAGVYVSVNNGKNTFADPPKMVIANFGYDAGGWRVEKHLRYLADIRKIGRADIIGFGEKGVLVSRNNGGLNFGPATLVLKDFGYDAGGWRLDRHLRFLADVTGNGHLDIVGFGDKHVFISRNNGDGTFAPAKSVIDNFCIDAGGWKIGDHPRFVADLTGDGTADIIGCGKAGCWVALNNGGGVFGQVKLVINDFGTDKGWQAAKHPRFIADLTGNGRGDVVGFGNAGVYVALNNGDGTFQSAKLVLKDFGVQQGWTVSKHRRFVVDLTGDGCADIIGFGEKETLVSYNDGKGNFGPVKALTNDFSFSGGKWAPETTVCWMANLDSSRH
B1: the “glycan array binding signal (z-score)” value in assay [1] is -0.333; in assay [2] it was -0.338.
